This is one part of the list.
What was measured:
HSkMC = human skeletal muscle cells; test: cytotoxicity call (relative viability < 0.9); settings: 10 µM
HepG2 = test: cytotoxicity call (relative viability < 0.9); settings: 10 µM
S. aureus RN4220 = test: growth inhibition call (relative growth <= 0.2); settings: 50 µM

Row | Structure (SMILES) | cytotoxicity call (HSkMC) | cytotoxicity call (HepG2) | growth inhibition call (S. aureus RN4220)
1 | COc1ccc(S(=O)(=O)Nc2cccc3c2O[C@H](CN(C)S(=O)(=O)c2ccc(C)cc2)[C@@H](C)CN([C@H](C)CO)C3=O)cc1 | inactive | inactive | inactive
2 | COc1cc2c(=O)c(-c3ccc4c(c3)OCO4)coc2c2c1OC(C)(C)C=C2 | inactive | active | inactive
3 | CCS(=O)(=O)N1CC[C@H]2[C@H](CC1)S(=O)(=O)CCN2C(=O)c1ccccc1 | inactive | inactive | inactive
4 | CCCCN1CC=C[C@@]23O[C@@H]4C=CCOC(=O)[C@@H]4[C@H]2C(=O)N([C@@H](C)CO)[C@@H]3C1=O | inactive | inactive | inactive
5 | C[C@H]1CN([C@@H](C)CO)S(=O)(=O)c2ccc(C#Cc3ccncc3)cc2O[C@@H]1CN(C)C(=O)Nc1ccc2c(c1)OCO2 | inactive | active | inactive
6 | Cc1cc(Oc2ccnc3cc(Cl)ccc23)ccc1Cl | inactive | inactive | inactive
7 | O=C(C[C@H]1C[C@@H]2c3cc(NS(=O)(=O)c4ccc(F)cc4)ccc3O[C@@H]2[C@@H](CO)O1)NCc1ccccc1 | inactive | inactive | inactive
8 | C[C@@H]1CCCCO[C@H](CN(C)S(=O)(=O)c2ccc(Cl)cc2)[C@@H](C)CN([C@@H](C)CO)C(=O)c2cc(NC(=O)CCC(F)(F)F)ccc2O1 | inactive | inactive | inactive
9 | C[C@@H]1CN([C@@H](C)CO)C(=O)c2cc(NS(=O)(=O)c3cn(C)cn3)ccc2O[C@@H]1CN(C)C(=O)Nc1ccc2c(c1)OCO2 | inactive | inactive | inactive
10 | CC(C)(C)NC(=O)[C@@H]1C[C@@H]2CCCC[C@@H]2CN1C[C@@H](O)[C@H](Cc1ccccc1)NC(=O)[C@H](CC(N)=O)NC(=O)c1ccc2ccccc2n1 | inactive | inactive | inactive
11 | C[C@H](CO)N1C[C@H](C)[C@H](CN(C)S(=O)(=O)c2ccccc2F)Oc2ncc(C#Cc3ccccc3)cc2C1=O | inactive | inactive | inactive
12 | C#CCN(O[C@@H](/C=C/[C@@H](O)CCn1cc(-c2cccc(/C=C/C(=O)NO)c2)nn1)C1CC1)[C@@H](Cc1ccccc1)C(=O)OC | inactive | inactive | inactive
13 | COc1ccc(NC(=O)N(C)C[C@H]2Oc3ncc(C#C[C@@H](C)O)cc3C(=O)N([C@@H](C)CO)C[C@H]2C)cc1 | inactive | inactive | inactive
14 | C[C@@H](O)[C@@H](O)[C@@H](O)C/C=N/NC(=O)CCCCC(=O)NO | inactive | inactive | inactive
15 | Cc1ccc(S(=O)(=O)N(C)C[C@@H]2Oc3ncc(C#CCC(C)C)cc3C(=O)N([C@@H](C)CO)C[C@H]2C)cc1 | inactive | active | inactive
16 | COc1ccc(S(=O)(=O)N(C)C[C@H]2Oc3ccc(NS(=O)(=O)c4ccc(C)cc4)cc3C(=O)N([C@H](C)CO)C[C@H]2C)cc1 | inactive | inactive | inactive
17 | CO[C@H]1CN(C)C(=O)c2ccc(NC(=O)NC(C)C)cc2OC[C@@H](C)N(Cc2ccc(-c3ccccn3)cc2)C[C@H]1C | inactive | inactive | inactive
18 | C[C@H]1CN([C@@H](C)CO)C(=O)c2cc(NC(=O)Nc3ccc(F)cc3)ccc2O[C@@H]1CN(C)CC1CCCCC1 | inactive | active | inactive
19 | COc1ccc(S(=O)(=O)Nc2ccc3c(c2)CC(=O)N([C@H](C)CO)C[C@@H](C)[C@H](CN(C)Cc2ccc(C(=O)O)cc2)O3)cc1 | inactive | inactive | inactive
20 | COc1ccc(S(=O)(=O)N(C)C[C@H]2Oc3ccc(NC(=O)CCN4CCOCC4)cc3C(=O)N([C@H](C)CO)C[C@@H]2C)cc1 | inactive | inactive | inactive
21 | Cc1noc(C)c1NC(=O)Nc1ccc2c(c1)C(=O)N([C@H](C)CO)C[C@@H](C)[C@@H](CN(C)S(=O)(=O)c1ccccc1)OCCCC[C@H](C)O2 | inactive | inactive | inactive
22 | O=C(C[C@H]1C=C[C@@H](NC(=O)C2CCC2)[C@H](CO)O1)NCCCN1CCOCC1 | inactive | inactive | inactive
23 | COc1ccc(S(=O)(=O)N(C)C[C@@H]2Oc3ccc(NC(=O)CCN4CCOCC4)cc3CC(=O)N([C@@H](C)CO)C[C@@H]2C)cc1 | inactive | inactive | inactive
24 | C[C@H](CO)N1C[C@H](C)[C@H](CN(C)C(=O)Nc2ccc(F)cc2)Oc2ccc(NC(=O)CCCCCC(=O)Nc3ccccc3N)cc2CC1=O | inactive | inactive | inactive
25 | COc1ccc(NC(=O)N(C)C[C@@H]2OCc3ccccc3-c3c(n(C)c4ccccc34)C(=O)N([C@H](C)CO)C[C@@H]2C)cc1 | inactive | inactive | inactive
26 | C[C@@H]1CN([C@@H](C)CO)C(=O)c2cccc(NC(=O)C3CC3)c2O[C@H]1CN(C)Cc1ccc(-c2ccccc2)cc1 | inactive | inactive | inactive
27 | Cc1noc(C)c1S(=O)(=O)Nc1ccc2c(c1)CC(=O)N([C@@H](C)CO)C[C@H](C)[C@@H](CN(C)C(=O)Nc1ccc3c(c1)OCO3)O2 | inactive | inactive | inactive

Row | Structure (SMILES) | cytotoxicity call (HSkMC) | cytotoxicity call (HepG2) | growth inhibition call (S. aureus RN4220)
28 | C[C@@H]1CN([C@H](C)CO)S(=O)(=O)c2ccc(C#C[C@@H](C)O)cc2O[C@@H]1CN(C)C(=O)CN(C)C | inactive | inactive | inactive
29 | COC(=O)C[C@@H]1C[C@@H](C)[C@@H]2C(=O)c3c(O)c4c(c(O)c3C(=O)[C@@H]2[C@@H]1O)[C@H]1C[C@@H](O)[C@@]4(O)[C@@H](C)O1 | inactive | active | inactive
30 | Cc1noc(C)c1NC(=O)N(C)C[C@H]1Oc2ccc(NC(=O)c3ccncc3)cc2C(=O)N([C@@H](C)CO)C[C@@H]1C | inactive | inactive | inactive
31 | CCS(=O)(=O)N1C[C@]2(C1)CN([C@@H](CO)c1c2c2ccc(cc2n1C)OC)C(=O)CN1CCOCC1 | inactive | inactive | inactive
32 | C[C@H]1CCCCO[C@H](CN(C)Cc2ccc(C(=O)Nc3ccccc3N)cc2)[C@@H](C)CN([C@@H](C)CO)C(=O)c2cc(N(C)C)ccc2O1 | inactive | inactive | inactive
33 | COc1ccc2c3c(n(c2c1)C)[C@@H](CO)N(C[C@]13CN(C1)S(=O)(=O)C)C(=O)CN(C)C | inactive | inactive | inactive
34 | CCCNC(=O)N1C[C@H](C)[C@@H](OC)CN(C)C(=O)c2ccc(NS(=O)(=O)CC(F)(F)F)cc2OC[C@H]1C | inactive | inactive | inactive
35 | Cc1ccc(S(=O)(=O)Nc2ccc3c(c2)C(=O)N([C@@H](C)CO)C[C@@H](C)[C@@H](CN(C)S(=O)(=O)c2ccc(F)cc2)O3)cc1 | inactive | inactive | inactive
36 | COc1ccc(S(=O)(=O)N(C)C[C@@H]2Oc3c(NC(=O)Nc4cccc5ccccc45)cccc3C(=O)N([C@@H](C)CO)C[C@H]2C)cc1OC | inactive | inactive | inactive
37 | Cc1noc(C)c1NC(=O)Nc1ccc2c(c1)C(=O)N([C@@H](C)CO)C[C@@H](C)[C@@H](CN(C)Cc1ccc3c(c1)OCO3)OCCCC[C@@H](C)O2 | inactive | inactive | inactive
38 | O=C(COc1ccccc1)Nc1nnc[nH]1 | inactive | inactive | inactive
39 | C[C@@H]1CCCCO[C@H](CN(C)Cc2ccc3c(c2)OCO3)[C@H](C)CN([C@H](C)CO)C(=O)c2cc(NS(=O)(=O)c3cccs3)ccc2O1 | inactive | inactive | inactive
40 | CC(C)NC(=O)Nc1ccc2c(c1)C(=O)N([C@H](C)CO)C[C@H](C)[C@@H](CN(C)Cc1ccc(C(F)(F)F)cc1)OCCCC[C@H](C)O2 | inactive | inactive | inactive
41 | CNC[C@@H]1OCCCC[C@H](C)Oc2ccc(NC(=O)Nc3ccc(C(F)(F)F)cc3)cc2C(=O)N([C@H](C)CO)C[C@@H]1C | inactive | inactive | inactive
42 | CO[C@H]1CN(C)C(=O)c2cc(NC(=O)C3CC3)ccc2OC[C@H](C)N(C(=O)Cc2ccccn2)C[C@@H]1C | inactive | inactive | inactive
43 | COc1ccccc1S(=O)(=O)N(C)C[C@@H]1OCc2cn(nn2)CCCC(=O)N([C@H](C)CO)C[C@H]1C | inactive | inactive | inactive
44 | CCN(CC)CCNc1nc(=O)[nH]nc1C | inactive | inactive | inactive
45 | C[C@@H]1CN([C@H](C)CO)C(=O)c2cc(NC(=O)Nc3ccccc3)ccc2O[C@H]1CN(C)C(=O)Nc1cccc2ccccc12 | inactive | inactive | inactive
46 | CC(=O)O[C@@H]1[C@@H](OC(C)=O)[C@@H]2OC[C@@H](O2)[C@H]1OC(C)=O | inactive | inactive | inactive
47 | Cc1noc(C)c1S(=O)(=O)Nc1ccc2c(c1)C(=O)N([C@@H](C)CO)C[C@@H](C)[C@@H](CN(C)C(=O)Nc1ccc(C(F)(F)F)cc1)OCCCC[C@@H](C)O2 | inactive | inactive | inactive
48 | Cc1ccc(S(=O)(=O)N(C)C[C@H]2Oc3ccc(NC(=O)CCCN(C)C)cc3C(=O)N([C@@H](C)CO)C[C@H]2C)cc1 | inactive | inactive | inactive
49 | Cc1noc(C)c1S(=O)(=O)N(C)C[C@H]1OCCCC[C@@H](C)Oc2ccc(NC(=O)Nc3ccc(C(F)(F)F)cc3)cc2C(=O)N([C@@H](C)CO)C[C@H]1C | inactive | inactive | inactive
50 | CN1CCN(C(=O)CC#N)CC1 | inactive | inactive | inactive
51 | C[C@H](CO)N1C[C@H](C)[C@H](CN(C)Cc2ccncc2)Oc2ccc(NC(=O)CCN3CCOCC3)cc2CC1=O | inactive | inactive | inactive
52 | C[C@H]1CN([C@@H](C)CO)C(=O)c2cc(NC(=O)C3CCCCC3)ccc2O[C@@H]1CN(C)Cc1ccc(C(F)(F)F)cc1 | inactive | inactive | inactive
53 | C[C@@H]1CN([C@H](C)CO)C(=O)c2cc(NS(=O)(=O)c3cn(C)cn3)ccc2O[C@H]1CN(C)S(=O)(=O)c1ccc(Cl)cc1 | inactive | inactive | inactive
54 | C[C@H]1CN([C@@H](C)CO)C(=O)Cc2cc(NC(=O)CCCCCC(=O)Nc3ccccc3N)ccc2O[C@H]1CN(C)Cc1ccccc1 | inactive | inactive | inactive
